Out of some 310,000 compounds screened, about 2,200 (0.71%) showed an effect of 50% or more. The effect is printed as a negative number. This is one part of the list.
Target: human ether-à-go-go-related gene (hERG) potassium channel (human, UniProt Q12809)
Test: primary screen, population patch clamp on CHO cells stably expressing hERG

Sequence of human ether-à-go-go-related gene (hERG) potassium channel (Q12809 whole entry, looked up): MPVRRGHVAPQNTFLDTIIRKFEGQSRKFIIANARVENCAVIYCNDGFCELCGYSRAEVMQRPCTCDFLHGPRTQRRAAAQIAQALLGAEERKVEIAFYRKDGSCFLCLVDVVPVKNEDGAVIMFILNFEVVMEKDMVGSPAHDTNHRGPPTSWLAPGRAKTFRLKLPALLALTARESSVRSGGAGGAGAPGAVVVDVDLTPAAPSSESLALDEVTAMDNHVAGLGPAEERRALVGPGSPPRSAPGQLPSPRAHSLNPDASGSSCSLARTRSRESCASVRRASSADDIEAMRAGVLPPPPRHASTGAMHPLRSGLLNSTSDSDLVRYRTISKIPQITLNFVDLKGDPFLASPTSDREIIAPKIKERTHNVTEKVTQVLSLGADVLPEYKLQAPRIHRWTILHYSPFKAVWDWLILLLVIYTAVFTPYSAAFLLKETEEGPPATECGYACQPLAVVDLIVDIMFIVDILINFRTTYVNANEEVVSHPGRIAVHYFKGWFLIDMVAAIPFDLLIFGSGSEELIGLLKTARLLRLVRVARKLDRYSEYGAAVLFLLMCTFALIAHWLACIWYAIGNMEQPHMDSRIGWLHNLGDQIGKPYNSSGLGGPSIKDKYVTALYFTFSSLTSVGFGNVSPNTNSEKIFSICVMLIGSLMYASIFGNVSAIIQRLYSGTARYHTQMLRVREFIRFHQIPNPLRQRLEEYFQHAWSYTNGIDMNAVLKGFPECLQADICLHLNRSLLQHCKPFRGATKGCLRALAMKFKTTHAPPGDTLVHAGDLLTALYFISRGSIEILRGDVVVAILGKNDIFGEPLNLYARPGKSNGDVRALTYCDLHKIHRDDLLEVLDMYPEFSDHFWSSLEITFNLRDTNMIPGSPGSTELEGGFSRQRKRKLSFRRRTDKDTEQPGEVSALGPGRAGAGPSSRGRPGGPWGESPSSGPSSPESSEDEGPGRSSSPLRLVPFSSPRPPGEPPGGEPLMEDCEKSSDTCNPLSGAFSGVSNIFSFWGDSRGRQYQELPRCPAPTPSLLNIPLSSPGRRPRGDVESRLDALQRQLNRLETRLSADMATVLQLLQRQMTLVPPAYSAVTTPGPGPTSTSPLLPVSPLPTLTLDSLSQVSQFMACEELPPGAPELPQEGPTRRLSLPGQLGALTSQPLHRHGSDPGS

Which “hERG current change (%, negative = inhibition) at 1uM” value does the source give for `Cc1ccc(NC(NC(=O)OCCn2c([N+](=O)[O-])cnc2C)C(Cl)(Cl)Cl)cc1` (stereo not drawn) here?
The value was 9.01%.

With `C=CC(=O)NCC1OCCc2ccccc21` (stereo not drawn) as the molecule, how does the “hERG current change (%, negative = inhibition) at 1uM” value read?
Its value is 14.2%.

`O=C(O)c1ccc(/C=N/N2CCN(c3ccccc3)CC2)cc1` was tested. Which “hERG current change (%, negative = inhibition) at 1uM” value did it give?
Its value is 8.93%.

How did the “hERG current change (%, negative = inhibition) at 1uM” value turn out when `O=C(Cn1nnc(-c2ccccc2)n1)NNC(=O)c1cccc([N+](=O)[O-])c1` was run?
Its value is 12.4%.

Which “hERG current change (%, negative = inhibition) at 1uM” value does the source give for `Cc1ccc(OCC(=O)c2cc(C)n(Cc3cccs3)c2C)c([N+](=O)[O-])n1` here?
The value was 12.9%.

`Cc1cc(C)c(OCC(O)CN2CCN(C(=O)c3ccccc3)CC2)c(C)c1.O=C(O)C(=O)O` (stereo not drawn) was tested. Which “hERG current change (%, negative = inhibition) at 1uM” value did it give?
Its value is -11.8%.

How did the “hERG current change (%, negative = inhibition) at 1uM” value turn out when `Cc1ccc(NC2=NC(c3ccc(O)cc3)n3c(nc(C)cc3=O)N2)cc1` (stereo not drawn) was run?
Its value is 12.4%.

For `Cc1ccc(-c2csc(NC(=O)C3=NN(c4ccccc4)C(=O)CC3)n2)cc1`, which “hERG current change (%, negative = inhibition) at 1uM” value is on record?
Its value is 5.88%.

With `CCOCCc1nnc(NC(=O)C2CCN(C(=O)c3ccco3)CC2)s1` as the molecule, how does the “hERG current change (%, negative = inhibition) at 1uM” value read?
The value was 21.9%.

Which “hERG current change (%, negative = inhibition) at 1uM” value does the source give for `O=C(NCCCSc1ccccc1)c1cc(Br)ccc1O` here?
Its value is 12.2%.

How did the “hERG current change (%, negative = inhibition) at 1uM” value turn out when `O=C1NC[C@@H](Cc2ccc(O)cc2)N(CC2CCCCC2)C1=O` was run?
Its value is 17.4%.

With `COc1ccc(OC)c2sc(NC(=O)CCS(=O)(=O)c3ccccc3)nc12` as the molecule, how does the “hERG current change (%, negative = inhibition) at 1uM” value read?
The value was 16.8%.

For `CCOC(=O)C1CCN(C(=O)c2cn(C)c(=O)c3cc(OC)c(OC)cc23)CC1`, which “hERG current change (%, negative = inhibition) at 1uM” value is on record?
The value was 7.95%.

How did the “hERG current change (%, negative = inhibition) at 1uM” value turn out when `CCCc1nc(SCC(=O)NCC2CCCO2)c2c(=O)n(C)c(=O)n(C)c2n1` (stereo not drawn) was run?
The value was 11.6%.

With `CCCCNC(=O)[C@H](Cc1c[nH]c2ccccc12)NC(=O)c1ccccc1Cl` as the molecule, how does the “hERG current change (%, negative = inhibition) at 1uM” value read?
Its value is 5.34%.

Which “hERG current change (%, negative = inhibition) at 1uM” value does the source give for `COC(=O)C1SCCN1S(=O)(=O)c1ccc(Cl)cc1` (stereo not drawn) here?
The value was 2.67%.

How did the “hERG current change (%, negative = inhibition) at 1uM” value turn out when `CC1(c2ccccc2)CC(C)(C)N(C(=O)c2cc([N+](=O)[O-])cc([N+](=O)[O-])c2)c2ccccc21` (stereo not drawn) was run?
The value was 15.7%.

For `CC(C)(C)NC(=O)CN(Cc1cccnc1)C(=O)c1csnn1`, which “hERG current change (%, negative = inhibition) at 1uM” value is on record?
Its value is 4.4%.

With `CCOC(=O)COc1ccc(S(=O)(=O)NCc2cccnc2)cc1` as the molecule, how does the “hERG current change (%, negative = inhibition) at 1uM” value read?
Its value is 5.98%.

How did the “hERG current change (%, negative = inhibition) at 1uM” value turn out when `COc1ccc(C2CC(c3ccccc3)=NN2C(=O)COC(=O)C2(C)CC2(Cl)Cl)cc1` (stereo not drawn) was run?
The value was 13.5%.

For `CCOc1ccc(CNc2ccc(S(N)(=O)=O)cc2)cc1`, which “hERG current change (%, negative = inhibition) at 1uM” value is on record?
The value was 9.95%.

Which “hERG current change (%, negative = inhibition) at 1uM” value does the source give for `N=c1ccccn1CC(O)COc1ccccc1` (stereo not drawn) here?
Its value is 9.64%.

For `O=C(Nc1ccc2nc3n(c(=O)c2c1)CCCC3)c1ccccc1[N+](=O)[O-]`, which “hERG current change (%, negative = inhibition) at 1uM” value is on record?
The value was 9.03%.

With `COc1ccccc1NC(=O)Cn1ccn(-c2cccc3ccccc23)c(=O)c1=O` as the molecule, how does the “hERG current change (%, negative = inhibition) at 1uM” value read?
The value was -5.69%.

For `CCOC(=O)CSc1nc2c(sc(=S)n2-c2ccccc2)c(=O)[nH]1`, which “hERG current change (%, negative = inhibition) at 1uM” value is on record?
Its value is -0.273%.

`CCn1cc(C(=O)N2CCOCC2)c(=O)c2cc(S(=O)(=O)N(C)C)ccc21` was tested. Which “hERG current change (%, negative = inhibition) at 1uM” value did it give?
Its value is 4.21%.

With `O=c1c2ccccc2[nH]c(=S)n1CCN1CCCC1` as the molecule, how does the “hERG current change (%, negative = inhibition) at 1uM” value read?
Its value is 1.44%.

How did the “hERG current change (%, negative = inhibition) at 1uM” value turn out when `COc1ccc(-c2cn(-c3ccc(Br)cc3)c3[n+]2CCS3)cc1.[Br-]` was run?
The value was -16.9%.

Which “hERG current change (%, negative = inhibition) at 1uM” value does the source give for `Cc1cc(O)ccc1NC(=O)CCN1C(=O)c2ccc([N+](=O)[O-])cc2C1=O` here?
Its value is 12.6%.

How did the “hERG current change (%, negative = inhibition) at 1uM” value turn out when `Cc1ccc(NS(=O)(=O)c2ccc(C(=O)NCCCN3CCCC3=O)cc2)cc1C` was run?
The value was 16.4%.

Which “hERG current change (%, negative = inhibition) at 1uM” value does the source give for `Cc1ccccc1N1C(=O)Cc2ccccc2C1=O` here?
The value was 12.8%.

For `O=C(NN1C(=O)C2C3C=CC([C@H]4CC34)[C@@H]2C1=O)c1ccc(Br)cc1` (stereo partly drawn), which “hERG current change (%, negative = inhibition) at 1uM” value is on record?
Its value is 12.2%.

Which “hERG current change (%, negative = inhibition) at 1uM” value does the source give for `O=C(c1ccccc1)N1CCC(c2nc(-c3ccc(S(=O)(=O)N4CCOCC4)cc3)no2)CC1` here?
Its value is -2.24%.

How did the “hERG current change (%, negative = inhibition) at 1uM” value turn out when `CCc1nnc(NC(=O)CN2CCN(Cc3cccc(F)c3)CC2)s1` was run?
Its value is 9.59%.

With `COCc1cc(C)nc(SCC(=O)Oc2ccccc2)c1C#N` as the molecule, how does the “hERG current change (%, negative = inhibition) at 1uM” value read?
The value was 6.52%.

`CC(C)(C)C(=O)Nc1nc(C2CCCN2S(=O)(=O)c2ccc(Cl)cc2)cs1` (stereo not drawn) was tested. Which “hERG current change (%, negative = inhibition) at 1uM” value did it give?
The value was 5.04%.

`Cc1nc2ccc(NS(=O)(=O)c3ccc(F)cc3F)cc2s1` was tested. Which “hERG current change (%, negative = inhibition) at 1uM” value did it give?
Its value is -14.3%.

How did the “hERG current change (%, negative = inhibition) at 1uM” value turn out when `CCOCCCNC(=O)c1ccc2c(c1)N(CC)C(=O)c1ccccc1S2=O` (stereo not drawn) was run?
The value was 11.2%.

How did the “hERG current change (%, negative = inhibition) at 1uM” value turn out when `O=C(Nc1c(C(=O)Nc2ccccc2)cnn1-c1ccccc1)c1ccco1` was run?
Its value is 7.39%.

`CC1(C)CC(=O)C(C(c2ccncc2)C2C(=O)CC(C)(C)CC2=O)C(=O)C1` was tested. Which “hERG current change (%, negative = inhibition) at 1uM” value did it give?
The value was 9.96%.

Which “hERG current change (%, negative = inhibition) at 1uM” value does the source give for `CC1Sc2ccc(C(=O)Nc3cc(S(C)(=O)=O)ccc3Cl)cc2NC1=O` (stereo not drawn) here?
Its value is 6.25%.

With `COc1ccccc1OCCNC(=O)CSC(=S)N1CCCC1` as the molecule, how does the “hERG current change (%, negative = inhibition) at 1uM” value read?
Its value is 9.66%.

With `CCC1=C2CC[C@H]3C(=O)N(CC)C(=O)[C@H]3[C@H]2[C@@]2(Cc3ccccc3)C(=NCc3ccccc3)OC(=O)N2C1=O` as the molecule, how does the “hERG current change (%, negative = inhibition) at 1uM” value read?
The value was 7.2%.

`CCOC(=O)C1CCCN(C(=O)C2CCN(S(=O)(=O)N3CCC4(CC3)OCCO4)CC2)C1` (stereo not drawn) was tested. Which “hERG current change (%, negative = inhibition) at 1uM” value did it give?
Its value is 5.45%.

For `O=C(N/N=C/c1ccc[nH]1)c1cc(-c2cccs2)nc2ccccc12`, which “hERG current change (%, negative = inhibition) at 1uM” value is on record?
Its value is 9.6%.

For `O=C(C1CCC(=O)N(C2CC2)C1)N1CCC(Oc2ccccc2F)CC1` (stereo not drawn), which “hERG current change (%, negative = inhibition) at 1uM” value is on record?
The value was 11.9%.

`CC(C)c1ccc(S(=O)(=O)c2cc3cc(Br)ccc3oc2=O)cc1` was tested. Which “hERG current change (%, negative = inhibition) at 1uM” value did it give?
The value was 8.59%.

For `COc1ccc(Nc2nc3ccc(C)cn3c(=O)c2/C=N/O)cc1`, which “hERG current change (%, negative = inhibition) at 1uM” value is on record?
The value was 10.6%.

For `Cc1ccc(NC(=O)C2CCCN(C(=O)NCc3ccccc3)C2)c(C)c1` (stereo not drawn), which “hERG current change (%, negative = inhibition) at 1uM” value is on record?
Its value is 13.1%.

`COc1cc(C(=O)NC(=S)Nc2ccc(N3CCCC3)cc2)cc(OC)c1OC` was tested. Which “hERG current change (%, negative = inhibition) at 1uM” value did it give?
The value was 9.03%.

Which “hERG current change (%, negative = inhibition) at 1uM” value does the source give for `COc1ccc(Nc2nc(N)c([N+](=O)[O-])c(N3CCN(C)CC3)n2)cc1` here?
Its value is 8.45%.

For `COc1nc(N)c(C#N)c(-c2ccc(N(C)CCC#N)cc2)c1C#N`, which “hERG current change (%, negative = inhibition) at 1uM” value is on record?
The value was 5.24%.

For `COC(=O)c1ccccc1NC(=O)COC(=O)/C=C/c1ccco1`, which “hERG current change (%, negative = inhibition) at 1uM” value is on record?
The value was 5.32%.

With `Oc1ccc(N=Nc2nc(-c3ccccc3)c(-c3ccccc3)[nH]2)cc1` as the molecule, how does the “hERG current change (%, negative = inhibition) at 1uM” value read?
Its value is 13.4%.

Source: article PMC4336329 (PLoS ONE, 2015)
